# Assay results taken from PubChem BioAssay AID686979 (National Center for Advancing Translational Sciences (NCATS), 2013).
# The campaign covered roughly 420,000 compounds. About 50,000 (12%) were called active. Inconclusive results, whose numbers are uncertain, are shown with a selection of clear calls. Calls come from the whole dose curve; as a rule, active = well fitted inhibition curve with a large enough effect; inconclusive = small, poorly fitted or top-dose-only effect; inactive = flat fitted curve, though single readings scatter. Potencies of inconclusive entries are left out as doubtful fits.
# Assay: qHTS for Inhibitors of human tyrosyl-DNA phosphodiesterase 1 (TDP1): qHTS in cells in presence of CPT; note: nearly all actives have a fitted effect of over 55% in size
# Settings: chicken DT40 Tdp1-/-;hTDP1 cells + 20 nM CPT, ATP luminescence, 48 h; activity change, negative = growth inhibition: at 46.2 µM (top of the series) unless noted
# Procedure, shortened: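 Chicken DT40 Tdp1-/- cells stably complemented with human TDP1 were seeded at 400 cells/well in medium containing 20 nM camptothecin, exposed to pin-transferred compounds, and grown at 37 °C for at least 48 hr. Viability was read as ATP luminescence.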
# % is set by controls: 0 for no effect and ±100 for the full control effect; potency is the fitted concentration of half-maximal effect; tags give direction and shape of the fitted curve.
Structure (SMILES),Potency,"activity change, negative = growth inhibition"
CCCCNC(=S)N(C)/N=C/c1ccc2c(c1)OCO2,"inconclusive [inhibitor, single point]",–
COc1ccc2c(=O)c(-c3ccc(C)cc3)c(-c3ccccc3)oc2c1,active: 11.6 µM,–
CCOC(=O)NC(=O)/C(C=Nc1ccc(Cl)c(Cl)c1Cl)=C(\C)O,"inconclusive [inhibitor, single point]",–
O=C(O)/C(=N/NC(=O)c1ccc(Cl)cc1)c1ccccc1,–,inactive: 7.56%
O=S(=O)(c1ccc(OCC(O)CN2CCc3ccccc3C2)cc1)N1CCOCC1 (stereo not drawn),–,inconclusive: -34.4% [inhibitor]
Cc1ccc2nc3c(cc(C(=O)NCCc4ccccc4)c(=N)n3CCN3CCOCC3)c(=O)n2c1,"inconclusive [inhibitor, single point]",–
CCCc1cc(=O)oc2c3c(cc(OCC(=O)N[C@@H](C)C(=O)O)c12)OC(C)(C)CC3,–,inactive: 1.81%
COc1cc(/C=N/Nc2nc(Nc3ccccc3)nc(N3CCOCC3)n2)ccc1OC(=O)c1ccco1,active: 7.31 µM,–
OC(c1cccc(Cl)c1)c1nc(/C=C/c2ccccc2)cs1 (stereo not drawn),"inconclusive [inhibitor, single point]",–
CCOc1cc(/C=N/Nc2ccc(S(=O)(=O)Nc3ccccc3C(=O)O)cc2[N+](=O)[O-])cc(Cl)c1O,–,inactive: 1.91%
COc1ccc([C@H]2CC(=O)C=C(c3c(OC)cccc3OC)C2)cc1,active: 2.91 µM,–
CC(C)(CNCc1ccccc1)NS(=O)(=O)c1ccccc1,–,inactive: -2.28%
Cc1c(Cl)cccc1-c1ccc(CNCc2ccccn2)o1,"inconclusive [inhibitor, partial curve]",–
Cc1ccc(/C=C/S(=O)(=O)NCc2ccc(F)cc2)cc1,–,inactive: 6.01%
COc1ccc(S(=O)(=O)N(C(=O)c2ccncc2)c2ccc3oc(C)c(C(C)=O)c3c2)cc1,active: 3.66 µM,–
COc1ccc(OC)c(CCNC(=O)Cn2ccc3cc(S(=O)(=O)N4CCCC4)ccc32)c1,"inconclusive [inhibitor, single point]",–
Cc1ccnc(NC(c2cc(C)ccc2O)c2ccc3cccnc3c2O)c1 (stereo not drawn),"inconclusive [inhibitor, single point]",–
CCc1ccc(CN(C)C(C)C(=O)Nc2ccc(S(=O)(=O)N3CCCC3)cc2)cc1 (stereo not drawn),active: 18.4 µM,–
COc1ccc(-c2cn3c(n2)sc2cc(C(=O)NC4CCCCC4)ccc23)cc1,"inconclusive [inhibitor, single point]",–
COc1ccccc1OC(C)C(=O)N1CCN(CCc2ccccn2)CC1 (stereo not drawn),–,inactive: 6.19%
CCOc1ccccc1-c1nc(CN2CCC(C(=O)N3CCOCC3)CC2)c(C)o1,–,inactive: 3.81%
COc1ccccc1-c1cncnc1NCCNC(C)=O,"inconclusive [inhibitor, single point]",–
COc1cc(-c2coc3c(C(=O)NCc4ccc(OC)c(OC)c4)cccc23)ccc1O,active: 5.8 µM,–
Cc1ccc(C)c(NC(=O)C(NS(=O)(=O)c2ccc3c(c2)CCC(=O)N3)c2ccccc2)c1 (stereo not drawn),"inconclusive [inhibitor, single point]",–
c1ccc(-c2sc3ccccc3c2-c2ccc(OCCN3CCOCC3)cc2)cc1,–,inactive: -27.7%
COc1ccc(C(=O)N2N=C(c3cccs3)CC2c2ccccc2O)cc1 (stereo not drawn),–,inactive: -4.48%

Structure (SMILES),Potency,"activity change, negative = growth inhibition"
O=C(CSc1ncn[nH]1)NCc1ccc2c(c1)OCO2,–,inactive: 11.8%
Cc1ccc(C(=O)O)c(C(=O)Nc2nc3ccccc3s2)c1,–,inactive: 5.07%
Cc1ccc(-n2c(=O)c3cccnc3n2CC(=O)Nc2ccccc2C(F)(F)F)cc1C,"inconclusive [inhibitor, single point]",–
C/C(=N\NC(=O)c1nnn(-c2nonc2N)c1-c1cccs1)c1cccc(O)c1,–,inactive: 19.1%
N#Cc1c(SCC(N)=O)nc(-c2ccccc2)c2c1CCCC2,"inconclusive [inhibitor, single point]",–
Cc1ccc(C(=O)c2cc(C)sc2NC(=O)CN2CCN(C(=O)c3ccco3)CC2)cc1,"inconclusive [inhibitor, single point]",–
O=C(Cc1ccccc1)NCC(=O)N/N=C/c1ccc(Cl)cc1,–,inconclusive: -32.4% [inhibitor]
CC1(NC(=O)/C=C/c2nc3ccccc3s2)CCS(=O)(=O)C1 (stereo not drawn),–,inactive: 4.85%
CCOC(=O)C1CCCN(C(=O)Cn2nc(C)n3c(cc4c(OC)cccc43)c2=O)C1 (stereo not drawn),inactive,–
Cc1cccc(OCCCn2c(=O)sc3ccccc32)c1,–,inactive: -2.33%
O=C(OCc1cc(=O)n2c(n1)sc1ccccc12)c1ccc(O)cc1,–,inactive: 1.18%
O=C(CSCc1ccccc1Br)N/N=C/c1ccc2c(c1)OCO2,"inconclusive [inhibitor, single point]",–
Cc1c(CC(=O)N2C[C@H]3C[C@@H](C2)c2cccc(=O)n2C3)c(=O)oc2cc3occ(C(C)(C)C)c3cc12,"inconclusive [inhibitor, single point]",–
COc1ccccc1N1CCN(Cc2cc(COC(C)C)c3cccnc3c2O)CC1,active: 4.61 µM,–
COc1ccccc1C1c2ccc3ccccc3c2Oc2ncn(CCCO)c(=N)c21 (stereo not drawn),active: 23.1 µM,–
O=C(CN1C(=O)S/C(=C\C=C\c2ccccc2)C1=O)Nc1cccc(O)c1,"inconclusive [inhibitor, single point]",–
Cc1ccccc1OCC(=O)NCC(=O)OCC(=O)c1ccc(Br)cc1,–,inactive: 6.38%
CCN(CC)S(=O)(=O)c1cccc(N=Nc2c(O)c3ccccc3oc2=O)c1,"inconclusive [inhibitor, single point]",–
CC(=O)N1CCC2(CC1)CN(c1ccccc1)C2,"inconclusive [inhibitor, single point]",–
CCOC(=O)c1c(NC(=O)CN2CCN(c3ccc(Cl)cc3)CC2)sc(C)c1C,"inconclusive [inhibitor, partial curve, poor fit]",–
O=C(NCc1cccnc1)c1ccccc1CCc1ccccc1,"inconclusive [inhibitor, single point]",–
Nc1nc(-c2cccc(Br)c2)cs1,–,inactive: -21.7%
C[C@H](CO)N1C[C@H](C)[C@@H](CN(C)Cc2ccc3c(c2)OCO3)Oc2ccc(NC(=O)Cn3cnnn3)cc2C1=O,–,inactive: 9.77%
O=C(Nc1ccc(N2CCOCC2)c(Cl)c1)c1c(F)c(F)c(F)c(F)c1F,active: 23.1 µM,–
COc1ccccc1-c1ccc(C(=O)N(C)CC2COCCO2)c(N2CCN(c3ccccc3F)CC2)n1 (stereo not drawn),–,inactive: -7.71%
O=C(O)/C=C/c1ccc2noc(-c3ccccc3)c2c1,active: 14.6 µM,–

Structure (SMILES),Potency,"activity change, negative = growth inhibition"
Cc1nc(N(CCO)C2CCCCC2)c2nnn(Cc3ccccc3)c2n1,–,inactive: -15.6%
O=C(NCCS(=O)(=O)N1CCN(c2cccc(Cl)c2)CC1)C1CC1,"inconclusive [inhibitor, single point]",–
Cn1c(-c2ccccc2)c(C(=O)CCl)c2ccccc21,active: 2.59 µM,–
N#CCCCSc1nnc(-c2ccc(Cl)cc2)n1-c1ccccc1,"inconclusive [inhibitor, partial curve]",–
Fc1ccc(-c2noc3ncnc(NCc4cccc(Cl)c4)c23)cc1,–,inactive: -4.36%
Cc1cccc(Cc2c(C)nc3nc(SCC(=O)NC4CCCCC4)nn3c2C)c1,–,inactive: -28.8%
CSc1cccc(NS(=O)(=O)c2ccc3[nH]cc(C(=O)N4CCCCCC4)c(=O)c3c2)c1,–,inactive: -23.1%
Cc1cc2ccc(C)c(C)c2nc1SCC(=O)c1cccs1,"inconclusive [inhibitor, single point]",–
CC(=O)c1c(N2CCCCC2)nc(=O)n(-c2ccccc2)c1C,–,inactive: -3.62%
Cc1ccc(C(=O)Oc2ccccc2C(=O)N2CCOCC2)cc1,–,inactive: -3.15%
O=C(NCC(=O)N1CCCCCC1)c1ccc(OC(F)F)cc1,–,inactive: 2.52%
Cc1ccc(C)c(NC(=O)COc2cccc3c2CCN(Cc2ccccc2)C3=O)c1,"inconclusive [inhibitor, partial curve, poor fit]",–
CCN(CCCn1c(SCC#N)nc2ccccc2c1=O)c1ccccc1,"inconclusive [inhibitor, single point]",–
COc1ccc(-c2noc(CCC(=O)Nc3ccccc3Cl)n2)cc1OC,"inconclusive [inhibitor, single point]",–
CC(Sc1nc(N)cc(N)n1)C(=O)NCCC1=CCCCC1 (stereo not drawn),–,inactive: -2.48%
Cc1ccc(N2CC(NC(=O)Cc3ccc(F)cc3)CC2=O)cc1C (stereo not drawn),"inconclusive [inhibitor, single point]",–
CCc1ccccc1N(CC(=O)NCc1ccco1)C(=O)c1snc(C(N)=O)c1N,"inconclusive [inhibitor, single point]",–
N=C(N)SCc1cn2ccccc2n1,"inconclusive [inhibitor, single point]",–
O=C1COc2ccc(S(=O)(=O)N3CCC(C(=O)NCc4ccccc4)CC3)cc2N1,–,inactive: -12.3%
CCCC(=O)NC(=S)Nc1ccc(CN2CCOCC2)cc1,–,inactive: 4.02%
CCn1c(=O)n(CC)c2cc(S(=O)(=O)Nc3ccccc3C)c(C)cc21,"inconclusive [inhibitor, single point]",–
O=C(O)C1CCC(=O)N(C2CC2)C1c1ccccc1 (stereo not drawn),–,inactive: -4.57%
O=C(NCC(=O)N1CCN(C/C=C/c2ccccc2)CC1)c1ccc(OC(F)F)cc1,"inconclusive [inhibitor, single point]",–
Cc1ccc(C(=O)CC(=O)c2ccccc2C)c(O)c1,active: 2.59 µM,–
Cn1c(SCc2ccccc2)nnc1-c1ccc2nonc2c1,–,inactive: -5.23%
COc1ccc(-n2ncc3c2CC(C)(C)CC3NC(=O)C2=CC(=O)CC(C)(C)O2)cc1 (stereo not drawn),"inconclusive [inhibitor, single point]",–
